Test results: PubChem BioAssay AID686979 (National Center for Advancing Translational Sciences (NCATS), 2013)
Where “and” joins values, the source holds several entries; their conditions need not be identical. Equal entries are not always repeated. In all, about 420,000 compounds went through this assay and about 50,000 (12%) were called active. The inconclusive results got no clear call from the source; some entries with a clear call stand among them for comparison. The call rests on the fitted dose curve; in most records, active means well fitted inhibition curve with a large enough effect; inconclusive means small, poorly fitted or top-dose-only effect; inactive means flat fitted curve, though single readings scatter. Potencies of inconclusive entries are left out as doubtful fits.

assay: qHTS for Inhibitors of human tyrosyl-DNA phosphodiesterase 1 (TDP1): qHTS in cells in presence of CPT; conditions: chicken DT40 Tdp1-/-;hTDP1 cells + 20 nM CPT, ATP luminescence, 48 h; activity change, negative = growth inhibition: at 46.2 µM (top of the series) unless noted; further: nearly all actives have a fitted effect of over 55% in size
How it was run: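 Chicken DT40 Tdp1-/- cells stably complemented with human TDP1 were seeded at 400 cells/well in medium containing 20 nM camptothecin, exposed to pin-transferred compounds, and grown at 37 °C for at least 48 hr. Viability was read as ATP luminescence.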
On the % scale 0 is the no-effect control and ±100 the full control effect; potency means the concentration at half of the fitted maximal effect; tags describe the fitted curve by direction and shape.

Structure (SMILES) | Potency | activity change, negative = growth inhibition
CCN(CC)C(=O)C1=C(C)N(Cc2ccc(OC)cc2)C(=O)C(CC(=O)NCCCCc2ccccc2)C1 (stereo unspecified) | inconclusive [inhibitor, single point] | –
CCCCn1nnnc1C(c1cc2ccccc2o1)N(C)Cc1ccccc1 (stereo unspecified) | inconclusive [inhibitor, single point] | –
CCc1cc(-c2[nH]ncc2-c2ccc([N+](=O)[O-])cc2)c(O)cc1OC | inconclusive [inhibitor, partial curve] | –
CCCc1nc(SCC(=O)N2CCCC2)c2ccccc2n1 | – | inactive: -7.5%
O=C(NCCc1ccc(O)cc1)c1[nH]c(C(F)(F)F)nc1-c1ccccc1 | inconclusive [inhibitor, full curve] | –
O=Cc1cc2c(cc1[B-](F)(F)F)OCO2 | inconclusive [inhibitor, single point] | –
O=c1c(-c2nnc(SCc3ccc(Cl)cc3)o2)cccn1Cc1ccccc1 | inconclusive [inhibitor, partial curve] | –
CC(=O)Nc1ccc(S[C@@H](CCN2CC[C@H](O)CCC2=O)c2ccccc2)cc1 | inactive | –
O=C(C1CCCN(S(=O)(=O)c2cc(Cl)ccc2Cl)C1)N1CCCCCC1 (stereo unspecified) | inconclusive [inhibitor, single point] | –
O=C(Oc1c(Br)cc([N+](=O)[O-])cc1Br)c1cccnc1 | active: 18.4 µM | –
CCOc1ccc(C(=O)CCC(=O)NC(C)C(=O)OC)cc1 (stereo unspecified) | inconclusive [inhibitor, single point] | –
O=C(OCc1cc(=O)n2ccsc2n1)C1(c2ccccc2)CC1 | – | inactive: -19.7%
COc1ccccc1N1CCN(C(=O)c2ccccc2N(C)S(=O)(=O)c2ccc(C)cc2)CC1 | inconclusive [inhibitor, single point] | –
O=C(CSc1ncccn1)Nc1ccc(Cl)c(S(=O)(=O)N2CCOCC2)c1 | – | inactive: -4.53%
C=C(C(=O)Oc1c(C(C)(C)C)cccc1C(C)(C)C)c1ccccc1 | – | inactive: -11.6%
CC1Cc2ccccc2N1S(=O)(=O)c1ccc(Cl)nc1 (stereo unspecified) | inconclusive [inhibitor, partial curve] | –
COc1cccc(CC(=O)NCC2Cc3cc(Cl)cc(-c4ncccn4)c3O2)c1 (stereo unspecified) | inconclusive [inhibitor, single point] | –
Cc1ccc(C)c(N2CCN(C(=O)C3CCCN(c4ncnc5c4nc4n5CCCCC4)C3)CC2)c1 (stereo unspecified) | active: 16.4 µM | –
CS(=O)(=O)N(CC(=O)N1CCN(c2ccccc2F)CC1)c1cc(C(F)(F)F)ccc1Cl | inconclusive [inhibitor, single point] | –
CCn1c(C)nc([N+](=O)[O-])c1Sc1ccc(F)cc1 | inconclusive [inhibitor, single point] | –
Cc1sc(NC(=O)c2ccc3ncsc3c2)c(C(N)=O)c1C | – | inactive: -20.7%
Cn1nnnc1SCCCNCc1cccc(OCc2ccc(F)cc2)c1 | inconclusive [inhibitor, single point] | –
COc1ccc(Nc2c[nH]c(=O)[nH]c2=O)cc1 | – | inactive: -11.7%
COc1cc(Nc2ncc3c(n2)CCN(Cc2cccc(C)c2)C3)cc(OC)c1 | active: 3.66 µM | –

Structure (SMILES) | Potency | activity change, negative = growth inhibition
CC1CCCN(c2nc3c(c(=O)[nH]c(=O)n3C)n2Cc2ccccc2Cl)C1 (stereo unspecified) | active: 14.6 µM | –
Cn1c(=O)c2c(nc(Oc3ccccc3Cl)n2Cc2ccc(C#N)cc2)n(C)c1=O | – | inactive: -1.09%
Cc1cccc(N2CCN(C(=O)C3CCN(c4ncnc5c4nc4n5CCCCC4)CC3)CC2C)c1 (stereo unspecified) | active: 5.17 µM and active: 6.51 µM | –
COc1ccc(-n2c(C)cc(C3=NNC(=NC4CC4)SC3)c2C)cc1 | inconclusive [inhibitor, single point] | –
Cc1ccc(S(=O)(=O)N2[C@H](CC(=O)c3cccs3)OC[C@@H]2C(C)C)cc1 | inconclusive [inhibitor, single point] | –
O=C(NCc1ccc(C(F)(F)F)cc1)c1cccc2c(-c3cccnc3)coc12 | inconclusive [inhibitor, partial curve] | –
CCOC(=O)c1c(N=CN(C)C)c2cc([N+](=O)[O-])cnc2n1C | inconclusive [inhibitor, partial curve, poor fit] | –
CCN(CC)C(=O)C(C)OC(=O)COc1ccc(Cl)cc1Cl (stereo unspecified) | – | inactive: 2.08%
CCCCC(=O)OCC(=O)Nc1ccc(C)c(F)c1 | – | inactive: 2.58%
COc1ccc(NC(=O)CCNC(=O)C2CCN(S(=O)(=O)c3ccc(F)cc3)CC2)cc1OC | – | inactive: 1.1%
CCOC(=O)N1CCN(C(=O)c2ccc(Cn3c(=S)[nH]c4ccc(Br)cc4c3=O)cc2)CC1 | active: 5.17 µM | –
Cc1ccc(C)c(NC(=O)c2cc(-c3cccnc3)nc3ccccc23)c1 | inconclusive [inhibitor, single point] | –
CC(/C=C/c1ccccc1F)=N\NC(=O)c1ccccc1 | inconclusive [inhibitor, single point] | –
O=C(CSc1ccc(F)cc1)NC12CC3CC(CC(C3)C1)C2 | inconclusive [inhibitor, single point] | –
Cc1ccc2c(c1)C1CC(C)(O2)N(c2cccc(C(=O)NC3CCN(Cc4ccccc4)CC3)c2)C(=O)N1 (stereo unspecified) | inconclusive [inhibitor, single point] | –
CCN(CC)C(=S)SCC(=O)c1ccc(F)cc1 | active: 2.91 µM | –
NC(=O)[C@H]1CC2(CC(c3cccc(NC(=O)COc4ccc(Cl)cc4)c3)=NO2)CN1C(=O)CC(c1ccccc1)c1ccccc1 (stereo partly specified) | inconclusive [inhibitor, single point] | –
COc1ccc(C(=O)N(C)Cc2ccccn2)cc1OC1CCN(C(C)C)CC1 | – | inactive: 10.6%
Nc1ccc(-c2cc3ccccc3c(=O)o2)cc1 | inconclusive [inhibitor, single point] | –
CCc1nn(C(C)C(=O)N2CCN(c3ccccc3)CC2)c(=O)c2cc3occc3n12 (stereo unspecified) | inconclusive [inhibitor, single point] | –
Cc1oc2c(C)c3oc(=O)c(CC(=O)N4CCCCC4)c(C)c3cc2c1C | active: 20.6 µM | –
CC(=O)Nc1ccc(NC(=O)[C@@H](NC(=O)c2ccccc2F)C(C)C)cc1 | – | inactive: -9.2%
COc1cc(C(=O)N2CCN(S(=O)(=O)c3ccc(F)cc3)CC2)cc(OC)c1OC | – | inactive: 3.43%
CC(=O)Nc1cc(-c2nn(C)c(=O)c3ccccc23)ccc1N1CCOCC1 | – | inactive: 26.5%

Structure (SMILES) | Potency | activity change, negative = growth inhibition
Cc1cc(NC(=O)COc2ccc(Cl)cc2Cl)n(CCC#N)n1 | inconclusive [inhibitor, single point] | –
O=c1[nH]c(C2CCN(S(=O)(=O)c3ccc(F)cc3)CC2)nc2c1nnn2Cc1ccc2c(c1)OCCO2 | inconclusive [inhibitor, single point] | –
O=C(Nc1cccnc1)c1ccc(Cl)c(S(=O)(=O)N2CCCCCC2)c1 | inconclusive [inhibitor, single point] | –
COc1ccccc1C(=O)NNC(=S)NC(=O)c1ccco1 | active: 11.6 µM | –
Cc1ccc(C)c(N2CCN(C(=O)C3CCN(S(=O)(=O)c4c(C)noc4C)CC3)CC2)c1 | active: 10.3 µM | –
Cc1ccc(NS(=O)(=O)c2ccc3c(c2)NC(=O)C(C)C(=O)N3)cc1C (stereo unspecified) | inconclusive [inhibitor, partial curve] | –
CCOC(=O)N1CCN(Cc2ccc(O)c3ncccc23)CC1 | active: 0.58 µM | –
COc1ccnc(Oc2ccc(F)cc2)c1C(=O)N/C=N/OCc1ccc(Cl)cc1Cl | – | inactive: -8.27%
COc1ccc(C(=O)N2CCCC(c3cc(C(=O)Nc4ccccc4)no3)C2)cc1 (stereo unspecified) | – | inactive: -5.75%
CSc1ccc(CCNC(=O)c2ccc3c(Cl)c4c(nc3c2)CCCC4)cc1 | inconclusive [inhibitor, single point] | –
COc1ccccc1N1CCN(C(=O)C2CCC(Cn3c(=S)[nH]c4ccccc4c3=O)CC2)CC1 (stereo unspecified) | active: 23.1 µM | –
COc1ccc([C@H]2CC(=O)C=C(c3cccc(OC(F)(F)F)c3)C2)cc1 | active: 23.1 µM | –
COc1ccc(C(CNC(=O)c2ccc(-c3ccccc3)cc2)N(C)C)cc1OC (stereo unspecified) | inconclusive [inhibitor, partial curve] | –
Cc1nn2c(=O)cc(COC(=O)c3cccs3)nc2s1 | inconclusive [inhibitor, single point] | –
Cc1ccc2nc(-c3ccncc3)cc(C(=O)NCc3ccccc3F)c2c1 | inconclusive [inhibitor, single point] | –
Nc1ccc(/C=C/c2ccnc3ccccc23)c(N)c1 | active: 10 µM | –
Cc1nn(C)cc1CN(C)C(=O)c1sc2cccc(Cl)c2c1Cl | inconclusive [inhibitor, single point] | –
COc1ccc(CN(C)CC(=O)NC2CCCc3ccccc32)cc1OC (stereo unspecified) | – | inactive: -5.46%
Cc1cc(C)c2c(CC(=O)Nc3ccccc3C(F)(F)F)coc2c1 | – | inactive: -2.35%
O=S(=O)(NC12CC3CC(CC(C3)C1)C2)c1ccc(F)cc1 | inconclusive [inhibitor, partial curve] | –
O=C(C[N+]1(CC(O)c2ccccc2)CCCCC1)c1ccccc1 (stereo unspecified) | inconclusive [inhibitor, full curve, poor fit] | –
Cc1ccc(C(=O)Nc2ccc3cn[nH]c3c2)cc1S(=O)(=O)N1CCOCC1 | inconclusive [inhibitor, single point] | –
C(=N\Nc1nc2ccccc2[nH]1)/c1c[nH]c2ccccc12 | inconclusive [inhibitor, single point] | –
